Results are given in words; binding and its absence hold for the method and conditions named. Binding seen in cells or lysates may run through a third protein. Some binding calls cover weakened binding; strength is not graded here.

Assay [1] deals with T1, Boi1CCG (S. cerevisiae) (UniProt P38041).
T1 sequence: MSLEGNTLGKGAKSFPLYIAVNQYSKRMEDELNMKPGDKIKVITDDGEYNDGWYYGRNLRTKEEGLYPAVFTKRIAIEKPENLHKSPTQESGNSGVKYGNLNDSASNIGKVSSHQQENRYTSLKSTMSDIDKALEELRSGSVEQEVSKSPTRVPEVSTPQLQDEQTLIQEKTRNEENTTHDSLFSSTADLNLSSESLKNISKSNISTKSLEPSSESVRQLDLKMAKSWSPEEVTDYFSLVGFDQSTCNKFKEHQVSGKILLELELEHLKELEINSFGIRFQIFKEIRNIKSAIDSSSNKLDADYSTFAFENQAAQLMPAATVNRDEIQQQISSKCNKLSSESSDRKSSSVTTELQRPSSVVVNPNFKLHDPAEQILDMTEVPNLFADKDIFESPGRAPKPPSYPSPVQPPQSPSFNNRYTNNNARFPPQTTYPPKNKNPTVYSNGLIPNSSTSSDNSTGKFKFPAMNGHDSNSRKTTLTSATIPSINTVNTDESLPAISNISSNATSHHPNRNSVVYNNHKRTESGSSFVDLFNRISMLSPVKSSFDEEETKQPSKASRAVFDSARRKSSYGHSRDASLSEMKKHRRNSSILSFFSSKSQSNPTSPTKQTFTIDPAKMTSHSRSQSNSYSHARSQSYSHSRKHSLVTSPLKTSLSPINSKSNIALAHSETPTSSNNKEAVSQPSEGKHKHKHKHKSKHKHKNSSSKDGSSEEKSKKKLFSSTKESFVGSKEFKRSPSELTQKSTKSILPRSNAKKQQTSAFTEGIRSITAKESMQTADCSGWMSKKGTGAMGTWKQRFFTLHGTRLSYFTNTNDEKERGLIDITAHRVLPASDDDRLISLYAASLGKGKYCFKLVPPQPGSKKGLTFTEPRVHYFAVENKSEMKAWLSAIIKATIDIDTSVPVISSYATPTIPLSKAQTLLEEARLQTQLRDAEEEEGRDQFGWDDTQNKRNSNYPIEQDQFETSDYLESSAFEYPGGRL
In words: split reporter; SPLIFF as a9, measured at the bud neck from completion of acto-myosin ring contraction until abscission (PCDIII).

A further assay deals with T2, Boi1CRU (S. cerevisiae) (UniProt P38041).
T2 sequence: T1 sequence
Nature of the assay: split reporter; split-ubiquitin (Split-Ub): CRU and Nub fusions co-expressed in yeast cells, spotted in 10-fold serial dilutions on medium with 1 mg/ml 5-FOA and copper, 30°C; growth = interaction.

The target of the next assay is T3, Boi2CRU (S. cerevisiae) (UniProt P39969).
T3 sequence: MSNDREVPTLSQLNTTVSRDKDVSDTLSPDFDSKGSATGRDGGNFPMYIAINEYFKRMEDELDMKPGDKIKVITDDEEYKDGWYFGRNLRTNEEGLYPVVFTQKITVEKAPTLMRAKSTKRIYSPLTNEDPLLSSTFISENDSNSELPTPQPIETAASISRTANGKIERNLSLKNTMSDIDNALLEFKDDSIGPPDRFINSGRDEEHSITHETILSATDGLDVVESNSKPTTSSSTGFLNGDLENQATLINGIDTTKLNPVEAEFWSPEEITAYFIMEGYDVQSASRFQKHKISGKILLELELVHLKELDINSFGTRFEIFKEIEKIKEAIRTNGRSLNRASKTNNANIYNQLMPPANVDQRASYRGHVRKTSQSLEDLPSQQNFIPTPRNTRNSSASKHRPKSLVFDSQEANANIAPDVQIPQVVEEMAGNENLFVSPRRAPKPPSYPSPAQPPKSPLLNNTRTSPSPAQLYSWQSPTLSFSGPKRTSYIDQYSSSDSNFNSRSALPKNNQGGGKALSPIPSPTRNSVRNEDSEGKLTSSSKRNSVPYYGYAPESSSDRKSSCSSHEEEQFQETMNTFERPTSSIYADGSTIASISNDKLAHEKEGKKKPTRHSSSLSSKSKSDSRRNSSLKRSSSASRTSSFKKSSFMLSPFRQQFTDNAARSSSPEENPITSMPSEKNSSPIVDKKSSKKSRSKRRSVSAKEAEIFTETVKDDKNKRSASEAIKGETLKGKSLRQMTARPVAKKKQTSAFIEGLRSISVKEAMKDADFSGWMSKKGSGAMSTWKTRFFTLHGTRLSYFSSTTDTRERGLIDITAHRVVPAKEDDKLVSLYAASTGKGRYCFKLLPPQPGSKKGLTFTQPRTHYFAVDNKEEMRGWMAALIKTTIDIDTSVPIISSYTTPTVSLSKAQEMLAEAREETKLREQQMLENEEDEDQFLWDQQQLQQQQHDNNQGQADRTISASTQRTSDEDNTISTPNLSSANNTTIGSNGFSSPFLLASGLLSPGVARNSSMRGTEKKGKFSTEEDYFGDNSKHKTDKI
Described as above.

Assay [2] addresses T4, Bem1WK-Cub-RUra3 (S. cerevisiae) (UniProt P29366).
T4 sequence: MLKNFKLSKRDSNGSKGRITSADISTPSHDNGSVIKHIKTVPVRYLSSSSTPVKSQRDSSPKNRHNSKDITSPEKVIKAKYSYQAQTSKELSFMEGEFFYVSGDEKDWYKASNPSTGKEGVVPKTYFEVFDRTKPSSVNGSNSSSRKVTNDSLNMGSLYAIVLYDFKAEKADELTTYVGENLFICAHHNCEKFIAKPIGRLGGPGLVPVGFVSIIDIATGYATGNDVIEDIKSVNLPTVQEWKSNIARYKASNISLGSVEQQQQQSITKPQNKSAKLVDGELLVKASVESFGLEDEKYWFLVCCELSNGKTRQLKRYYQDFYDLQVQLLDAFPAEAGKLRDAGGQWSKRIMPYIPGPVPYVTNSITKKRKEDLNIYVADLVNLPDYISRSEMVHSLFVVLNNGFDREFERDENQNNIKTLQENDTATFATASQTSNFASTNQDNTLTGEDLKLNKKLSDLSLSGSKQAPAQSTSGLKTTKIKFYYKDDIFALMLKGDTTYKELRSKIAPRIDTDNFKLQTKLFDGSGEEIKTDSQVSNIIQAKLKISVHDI
In words: split reporter; split-ubiquitin (Split-Ub): a-cells with a Cub-RUra3 (CRU) fusion mated with α-cells with Nub fusions (P_CUP1), diploids as quadruplets on SD medium with 1 mg/ml 5-FOA and copper; growth = interaction; detects direct and indirect interactions.

In assay [3] the target is T1, Boi1CCG (S. cerevisiae). Nature of the assay: split reporter; SPLIFF as a9, measured at the cell front during bud site assembly and bud growth (PCDII).
Assay [4] deals with T1, Boi1CCG (S. cerevisiae). Nature of the assay: split reporter; SPLIFF (split-ubiquitin with mCherry-Cub-RGFP, CCG): a-cells with the CCG fusion mated with α-cells with Nub-HA fusions; conversion of CCG to CC measured by time-lapse microscopy at the site of cell fusion (PCDI); a significant positive slope = interaction.

B1: Nub-Nba1 (protein, UniProt Q08229 1-501)
chain: MSEEREENGISRATLNTQRLSAMIDSLNNEKDDRLFPSPTTTRTMITEEKADQSDVFKPPSRLLRSPAGDVSLPPGDNRSSMISNYSGIIQEGVEVSYVVKNRQQTQERRTSKDSNSLYSLKEPVSKNELPSLPMLPSEATLTKHLSDNQSTKSNTNADEIVIKPVTNAKPVGRFNSNTSKKVEGRGSLKLLSSPLRQEKVMRSSIGSGNLASESGSSTYNTKFHQSIQEQLEEEEEGNVSDKLSIVSSVIPELYTTTNEAPKAINPIRSETNDYNPTIPPRSKDRPRSRLFIEEGDGEGDLLTEEILPTPVQPGGHYKNSSQISTVSEQKSESYYSAATSMPPEEETYLTRPLPSTPNEDSRVTSNLKRDDTLKAIHDRANHTSTSTNKQDDDMYEDIIEETPKKTKLKKDTKKKLNKKKSVKELRSFDIDTLNQLLSVTKGTLIGSEFAQLGMKIEEKRALERLVDSLSRLTADMVLDPDRYEEGLKRLDKATKALEGF
For the molecule B1, the binding entry in the assay with Boi1CCG (S. cerevisiae) [1] is given as “binds”; with Boi1CRU (S. cerevisiae), “binds”; with Boi2CRU (S. cerevisiae), “binds”; in assay [2], “no binding”; with Boi1CCG (S. cerevisiae) [3], “no binding (condition: during PCDII (bud growth))”; with Boi1CCG (S. cerevisiae) [4], “no binding (condition: during PCDI (cell fusion))”.

The record behind these values is PMC7409549, “A time-resolved interaction analysis of Bem1 reconstructs the flow of Cdc42 during polar growth” (Life Science Alliance, 2020).
